# Laboratory results reported in US20070259903A1 (priority 2006, published 2007).
# Read-outs that look alike come from different tables or passages of the source.
# Key:
# [1] = test system: Flu A (H1N1) New Caledonia/20/99; conditions: MDCK cells, continuous exposure
# [2] = test system: Flu A (H3N2) California/7/04; conditions: MDCK cells, continuous exposure
smiles,measurement,setting,value
"CCCCN1C(=O)CC(=O)N(CCCC)C1=S [Compound C1, 4,6(1H, 5H)-Pyrimidinedione, 1,3-dibutyldihydro-2-thioxo]",EC50,[1]; Neutral Red,>3.2 µg/mL
same,EC50,[1]; Visual,3.2 µg/mL
same,EC50,[2]; Neutral Red,3.2 µg/mL
same,EC50,[2]; Visual,3.2 µg/mL
